# From ChEMBL document CHEMBL1201862, “PubChem BioAssay data set” (2004)
#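 Compound exposure: 48 hours, 5 concentrations, 96-well plates. GI50: concentration for 50% inhibition of growth.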 Activity calls are given as the source filed them. Cut-off read from the data, not from the text of the source: active = GI50 up to about 1.1 µM and inactive = higher. Square brackets hold non-standard residues; d marks the D form. Peptide text beside a SMILES is read from it. ξ: configuration not given here. ξLac(3-iPr) = CC(C)CC(O)C(=O)O; NMeV = CN[CH](C(=O)O)C(C)C; NMeA = CN[CH](C)C(=O)O; βAla = NCCC(=O)O
# System: NCI-H322M
# Assay: NCI anticancer screen, dose series, 48 h
row,SMILES,GI50
1,CC1(O)CC(=O)c2c(cc3ccc(-c4c5c(c(O)c6c(O)cccc46)C(=O)CC(C)(O)C5)c(O)c3c2O)C1 (stereo not drawn),active: 0.161 µM
2,Cc1ccc([N+](=O)[O-])cc1S(=O)(=O)Nc1ccc(C2=NN(c3ccc([N+](=O)[O-])cc3[N+](=O)[O-])C(c3ccccc3O)C2)cc1 (stereo not drawn),inactive: 52.4 µM
3,CCCCCCCCCCC(=O)CC(=O)c1c(O)cccc1O,inactive: 40.7 µM
4,NC(CCCNCc1ccccc1O)C(=O)O (stereo not drawn),inactive: > 100 µM
5,N#Cc1c(N)nc(Sc2ccccc2N)c(C#N)c1-c1ccccc1,inactive: 49.5 µM
6,CS/C(=N\c1ccc([N+](=O)[O-])cc1C#N)NC(=O)c1ccccc1,inactive: > 100 µM
7,CCOC(=O)C(NC(=O)c1ccccc1)(Nc1ccc(Cl)cc1C(F)(F)F)C(F)(F)F (stereo not drawn),inactive: 20.7 µM
8,C=C1CC(C)(COc2ccc3c(C)cc(=O)oc3c2)OC1=O (stereo not drawn),inactive: 10.2 µM
9,COC(=O)CN1C(=O)C2(C(=O)OC)OC1(c1ccc([N+](=O)[O-])cc1)C1C(=O)N(c3ccccc3)C(=O)C12 (stereo not drawn),inactive: > 100 µM
10,O=S(=O)(O)c1ccc(O)c2ncc(Cl)cc12,inactive: > 100 µM
11,CC1(C)N=C(N)N=C(N)N1c1ccc(OCCCOc2ccccc2)c(Cl)c1,active: 0.237 µM
12,O=C1N/C(=N\N=C\c2ccccc2)C2(CCCCC2)O1,inactive: 96.2 µM
13,Brc1ccc2c(c1)-c1nc3nc4c(cc3cc1CC2)CCc1ccc(Br)cc1-4,inactive: > 100 µM
14,CC1(C)CC(=O)C(C(=O)C(=O)NC2=C(Cl)C(=O)c3ccccc3C2=O)C(=O)C1,inactive: > 100 µM
15,Cc1ccc(CC(C)N)cc1 (stereo not drawn),inactive: > 100 µM
16,COc1ccc(CC(C)NCC(O)c2ccc(O)c(NC=O)c2)cc1 (stereo not drawn),inactive: > 100 µM
17,O=C(O)CO[C@@]12C#C/C=C\C#C[C@@H]3N(C(=O)Oc4ccccc4)c4ccccc4[C@]14O[C@@]34CCC2,inactive: 82.8 µM
18,CN(C)C(=O)Oc1ccc(C(=S)Nc2ccccc2)cc1Br,inactive: 41.8 µM
19,C=C1C(=O)O[C@@H]2C(=O)[C@@H](C)CCC/C(C)=C/CC[C@@]3(C)O[C@@H]3C[C@@H]12,inactive: > 100 µM
20,CC1OC2=N[C@@H]1C(=O)N[C@@H](Cc1ccccc1)C1=N[C@H](C(=O)N[C@@H](Cc3ccccc3)C3=N[C@H](C(=O)N[C@H]2Cc2ccccc2)C(C)O3)C(C)O1 (stereo partly drawn),inactive: 60.8 µM
21,O=C(Sc1c(-c2ccccc2)c(=O)n(-c2ccccc2)c(=S)n1-c1ccccc1)c1ccc(Cl)cc1,inactive: 55.3 µM

row,SMILES,GI50
1,CN(/N=C/c1ccccn1)C1=NCCCN1,inactive: > 100 µM
2,Cc1cccc2c(N)c3cccc(C(=O)NCC[N+](C)(C)Cc4sccc4[N+](=O)[O-])c3nc12,inactive: 15.3 µM
3,CCOP(=O)(OCC)[C@]12C[C@@H](C)C=C[C@H]1COC2=O,inactive: > 100 µM
4,O=C(O)c1c(-c2nccc3ccccc23)[nH]c(-c2ccccc2)c1S(=O)(=O)O,inactive: > 100 µM
5,O=C(O)CCCOc1cc(-c2ccccc2F)nc2cc3c(cc12)OCO3,inactive: 22.8 µM
6,COc1ccc(C(=O)N=C2N(c3ccccc3)C(=N/c3ccccc3)/C(=N\c3ccccc3)N2c2ccccc2)cc1,inactive: > 100 µM
7,Cc1ccc(Cl)c(NC(=O)C(=O)C(C(=O)c2ccncc2)C2OC(=O)c3ccccc32)c1 (stereo not drawn),inactive: > 100 µM
8,O=c1[nH]c2ccc(O)cc2o1,inactive: > 100 µM
9,O=[N+]([O-])C(=C1c2ccccc2-c2ccccc21)[N+](=O)[O-],inactive: > 100 µM
10,Clc1ccc(/C=c2\nc(-c3ccccc3)n3c2nc2ccccc23)cc1,inactive: > 100 µM
11,COC(=O)[C@@H]1C=C[C@H](NC(C)=O)C1,inactive: > 100 µM
12,Cn1c2c(c3ccccc3c1=O)C(=O)c1ccccc1-2,inactive: 28.1 µM
13,Cc1cccc2c(N)c3cccc(C(=O)NCC[N+](C)(C)[O-])c3nc12,inactive: 10.4 µM
14,O=C1c2ccccc2/N=C(/c2cc3c(cc2Cl)Sc2nccn2S3(=O)=O)OS(=O)(=O)N1c1ccccc1,inactive: 12.6 µM
15,Oc1cc(O)c(Oc2cccc(O)c2O)c(O)c1,inactive: > 100 µM
16,C/C=C(\C)c1cc(O)c(C)c2c1Oc1cc(O)c(Cl)c(C)c1C(=O)O2,inactive: 38 µM
17,Nc1ccc(-c2nnc(-c3c(Cl)c(Cl)c(Cl)c(Cl)c3-c3nc4cc(C(=O)c5ccccc5)ccc4[nH]3)o2)cc1,inactive: 26.1 µM
18,CCC(CO)Nc1nc(NCc2ccccc2)c2ncn(C(C)C)c2n1 (stereo not drawn) [(RS)-ROSCOVITINE],inactive: 29 µM
19,CC12N=NNC1C(=O)NC2=O (stereo not drawn),inactive: > 100 µM
20,Nc1ccc2cc3ccc(N)cc3nc2c1,inactive: 1.39 µM
21,CC(=O)C1(Cc2cccc3ccccc23)S(=O)(=O)OCCOS1(=O)=O,inactive: 20.2 µM

row,SMILES,GI50
1,[O-][Cl+3]([O-])([O-])[O-].c1ccc(C[P+]2(c3ccccc3)CCCCC2)cc1,inactive: > 100 µM
2,CCCCCCCCCCCCCCCCCCOCC(CO[PH](=O)O)OCCCCCCCCCCCCCCCCCC (stereo not drawn),inactive: > 50 µM
3,N=c1sc2ccccc2n1CC[S-].c1ccc2c(c1)sc1[n+]2CCS1,inactive: 20.7 µM
4,Nc1ccc2c(c1)C1Oc3ccccc3CC1CO2 (stereo not drawn),inactive: > 100 µM
5,CSc1c(C#N)c(S)[nH]c(=O)c1C#N,inactive: 67.5 µM
6,Cc1nc2c(=O)[nH]c3ccc(Cl)cc3c2o1,inactive: > 100 µM
7,Cc1nnc(N/N=C2/C(=O)Nc3ccccc32)nc1O,inactive: > 100 µM
8,Oc1ccc[n+](Cc2ccccc2)c1,inactive: > 100 µM
9,CCC(C)C1NC(=O)C2CCCN2C(=O)C(CC(C)C)OC(=O)CCNC(=O)C(C)N(C)C(=O)C(C(C)C)N(C)C1=O (stereo not drawn) (cyclo([ξLac(3-iPr)]PI[NMeV][NMeA][βAla]); configuration not given here),inactive: 10.5 µM
10,OCC1CC2CC1C1(C2)OCCO1 (stereo not drawn),inactive: > 100 µM
11,O=[N+]([O-])c1nccn1CC(O)c1ccc(F)cc1 (stereo not drawn),inactive: > 100 µM
12,CN(C)c1cccc(-c2cc(=S)c3cc4c(cc3[nH]2)OCO4)c1,inactive: 6.34 µM
13,COc1cnc2oc3ccc(O)cc3c2c1-c1ccccc1,inactive: 24.7 µM
14,CC(c1ccccc1)n1c2ccccc2c2c(N)ncnc21 (stereo not drawn),inactive: 18.7 µM
15,O=c1[nH]cnc2c(C3OC(CO)C(O)C3O)c[nH]c12 (stereo not drawn),inactive: > 100 µM
16,O=C1CCSC(=S)N1c1ccc(Br)c(Cl)c1,inactive: 35.2 µM
17,CCC1(O)CC(OC2CC(N(C)C)C(OC3CC(O)C(OC4CCC(=O)C(C)O4)C(C)O3)C(C)O2)c2c(cc3c(c2O)C(=O)c2c(O)ccc(O)c2C3=O)C1C(=O)OC (stereo not drawn),active: < 0.01 µM
18,Cc1cc(Cl)ccc1NC(=O)/C(Cl)=C(/Cl)C(=O)O,active: 0.0444 µM
19,O=[N+]([O-])C(/C(Cl)=C(\Cl)Br)=C(/Cl)SCc1ccccc1,inactive: 16 µM
20,CCCCCCCCOCC(O)COC(C)C (stereo not drawn),inactive: > 100 µM
21,CC1OC(OC2C(O)COC(OC3C(C)OC(OC4C(OC(=O)[C@]56CCC(C)(C)C[C@@H]5C5=CCC7[C@@]8(C)C[C@H](O)[C@H](OC9OC(CO)C(O)C(OC%10OC(CO)C(O)C(O)C%10O)C9O)[C@@](C)(CO)[C@@H]8CC[C@@]7(C)[C@]5(C)CC6)OCC(O)C4O)C(O)C3OC3OCC(O)(CO)C3O)C2O)C(O)C(O)C1O (stereo partly drawn),inactive: 6.92 µM
